We go through 42 compounds from PMC4336329 (PLoS ONE, 2015).

Screen size: about 310,000 compounds; about 14,000 (4.5%) showed an effect of 50% or more. The effect is printed as a negative number. The list shows a part of the results.
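Note: peak tail current of the secondary pulse compared with the same well before compound.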

The target in the test is human ether-à-go-go-related gene (hERG) potassium channel (human, UniProt Q12809). Put plainly: primary screen, population patch clamp on CHO cells stably expressing hERG.
Chain of human ether-à-go-go-related gene (hERG) potassium channel (Q12809 whole entry, looked up): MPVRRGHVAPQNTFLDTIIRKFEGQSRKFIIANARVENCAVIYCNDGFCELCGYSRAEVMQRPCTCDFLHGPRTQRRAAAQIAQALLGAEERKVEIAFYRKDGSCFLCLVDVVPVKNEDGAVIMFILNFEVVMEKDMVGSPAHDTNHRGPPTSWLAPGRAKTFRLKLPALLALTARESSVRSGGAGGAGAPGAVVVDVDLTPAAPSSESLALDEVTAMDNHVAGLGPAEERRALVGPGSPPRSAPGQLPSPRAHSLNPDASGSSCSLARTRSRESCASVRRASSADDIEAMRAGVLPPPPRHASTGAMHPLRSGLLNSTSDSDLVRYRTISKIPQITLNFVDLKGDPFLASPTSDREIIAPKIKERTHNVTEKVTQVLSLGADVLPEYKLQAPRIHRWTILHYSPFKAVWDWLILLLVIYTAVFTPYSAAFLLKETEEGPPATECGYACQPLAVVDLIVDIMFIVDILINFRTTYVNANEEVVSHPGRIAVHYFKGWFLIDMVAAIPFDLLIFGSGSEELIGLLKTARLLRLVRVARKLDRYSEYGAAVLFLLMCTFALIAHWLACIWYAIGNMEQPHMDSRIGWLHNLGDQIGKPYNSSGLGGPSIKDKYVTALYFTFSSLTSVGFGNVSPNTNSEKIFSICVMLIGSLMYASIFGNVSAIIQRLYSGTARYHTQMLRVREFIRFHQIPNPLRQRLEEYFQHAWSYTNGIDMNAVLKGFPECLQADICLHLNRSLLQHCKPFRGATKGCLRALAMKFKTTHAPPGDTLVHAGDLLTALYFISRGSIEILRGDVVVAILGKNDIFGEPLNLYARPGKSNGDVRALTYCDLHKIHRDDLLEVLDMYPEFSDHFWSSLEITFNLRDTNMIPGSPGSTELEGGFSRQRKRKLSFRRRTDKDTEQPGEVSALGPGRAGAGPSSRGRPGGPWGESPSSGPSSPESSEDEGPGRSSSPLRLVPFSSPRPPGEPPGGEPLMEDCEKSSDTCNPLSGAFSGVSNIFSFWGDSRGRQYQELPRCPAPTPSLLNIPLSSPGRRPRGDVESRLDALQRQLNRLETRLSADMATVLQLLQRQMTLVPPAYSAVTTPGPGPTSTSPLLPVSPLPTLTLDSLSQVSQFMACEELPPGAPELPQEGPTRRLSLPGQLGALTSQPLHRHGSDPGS
For `CCOc1ccc(Nc2nc(Cc3nnc(SCC(=O)NCc4ccco4)n3CC)cs2)cc1`, the “hERG current change (%, negative = inhibition) at 10uM” value is reported as -15.7%. As for `CC(C)NC(=O)Cn1cc(C(=O)c2ccccc2F)c2ccccc21`, the figure is 7.27%.

On to `Cc1c(Cl)cccc1NC(=O)CC(NCCN1CCOCC1)C(=O)O` (stereo not drawn), for which the “hERG current change (%, negative = inhibition) at 10uM” value stood at 24.1%.

On to `COC(=O)c1cnn(-c2ccc(F)cc2F)c1/C=N/NC(N)=S`, for which the “hERG current change (%, negative = inhibition) at 10uM” value was -18.2%. As for `COC(=O)C1C(c2ccc(Cl)cc2)NC(c2ccc(Cl)cc2)C(C(=O)OC)S1(=O)=O` (stereo not drawn), the figure is 2.6%; as for `COC(=O)CN1C(=O)C(C)(C)Oc2ccc(C(=O)NC3CCCC3)cc21`, 7.4%. Under `Cc1ccnc(NC(=O)C2CCN(S(=O)(=O)c3c(C)c(C)cc(C)c3C)CC2)c1` stands -23.2%; under `Cc1ccc(C)c(S(=O)(=O)Nc2ccc3sc(C)nc3c2)c1`, -0.359%. Under `CCn1c(SCC(=O)N(C)C2CCS(=O)(=O)C2)nnc1-c1ccccc1` (stereo not drawn) stands 14.4%.

Regarding `Nc1c(C(=O)NCc2ccccc2)sc2nc(N3CCOCC3)c3c(c12)CCCC3`, the “hERG current change (%, negative = inhibition) at 10uM” value is 0.57%. As for `O=C(CCNC(=O)c1ccccc1Cl)NN1C(=O)NC2(CCCCC2)C1=O`, the figure is -4.92%. As for `CCCCC1=CC2=C(c3ccco3)C(=O)C(C)(OC(=O)c3ccc(OC)cc3)C(=O)C2=CN1Cc1ccccc1` (stereo not drawn), the figure is -21.9%; as for `Cc1cc(Cl)c(S(=O)(=O)N2CCN(c3ccc(F)cc3)CC2)cc1OCC(=O)NC1CCCCC1`, -0.282%. As for `CC1CN(C(=O)CCNS(=O)(=O)c2ccc(Br)cc2)CC(C)O1` (stereo not drawn), the figure is -17.2%; as for `Cc1ccc(S(=O)(=O)N2[C@@H](c3ccccc3)C(C(=O)O)=CC[C@H]2c2ccc(C(C)C)cc2)cc1`, 17.7%. As for `Cc1ccc(-c2nc(NC(=O)c3cc(C(C)(C)C)nn3C)sc2C)cc1Cl`, the “hERG current change (%, negative = inhibition) at 10uM” value turned out to be 12.9%.

In the case of `CC1(C)C[C@H]2C3=CCC4[C@@]5(C)CC[C@H](O)[C@](C)(CO)C5CC[C@@]4(C)[C@]3(C)C[C@H]3O[C@@H]1[C@H](O)[C@]32CO` (stereo partly drawn), the “hERG current change (%, negative = inhibition) at 10uM” value was 21%. Regarding `CCOC(=O)C1C(=O)Nc2nc(C)nn2C1c1ccccc1` (stereo not drawn), the “hERG current change (%, negative = inhibition) at 10uM” value is on record as 14.4%. As for `CCOc1ccccc1C(=O)NCC(=O)Nc1ccc(-c2ccccc2)cc1`, the figure is 0.26%; as for `CCc1cc2cc(C)cc(C)c2nc1SCC(=O)N1CCN(C(=O)c2ccco2)CC1`, -16.2%; as for `O=[N+]([O-])c1cccnc1N/N=C/c1ccccc1O`, 8.24%.

Turning to `Cc1ccccc1Nc1nc(N)nc(CSc2nncn2C)n1`, the “hERG current change (%, negative = inhibition) at 10uM” value is 4.34%.

Consider `COC(=O)c1cc(C(=O)NCCC(C)C)cc([N+](=O)[O-])c1`, for which the “hERG current change (%, negative = inhibition) at 10uM” value was determined as 4.78%. Consider `O=C(NC1CCCCC1)C(c1ccc2ncccc2c1)N(Cc1cccs1)C(=O)c1cccs1` (stereo not drawn), for which the “hERG current change (%, negative = inhibition) at 10uM” value was -51.3%. Under `O=S(=O)(/N=C(\c1ccc(Cl)cc1)N1CCOCC1)c1ccccc1` stands 3.03%; under `COc1ccccc1CC(=O)OC(C)C(=O)Nc1ccc(S(=O)(=O)N2CCCCC2)cc1` (stereo not drawn), -7.21%; under `COc1ccc(C)cc1NC(=O)CN(c1ccccc1)S(C)(=O)=O`, 1.57%. On to `Cc1cccc(N2CCN(C(=O)c3cc(S(=O)(=O)N4CCCC4)cn3C)CC2)c1C`, for which the “hERG current change (%, negative = inhibition) at 10uM” value is -38%. Regarding `CCOc1ccc(C(=O)N2CCN(c3cccc(C)c3C)CC2)cc1`, the “hERG current change (%, negative = inhibition) at 10uM” value was -79.9%. Consider `CCC1=NN2C(=N)/C(=C/c3ccc(OS(=O)(=O)c4ccccc4)cc3)C(=O)N=C2S1`, for which the “hERG current change (%, negative = inhibition) at 10uM” value is given as -3.25%. Under `Cl.NCCCCCc1nnc(SCC(N)=O)o1` stands 3.24%; under `CCOC(=O)C1=NNC(C(=O)c2ccc(OC)cc2)C1c1ccccc1` (stereo not drawn), -9.43%; under `Cc1ccc(N(Cc2cc3cc(C)ccc3[nH]c2=O)C(=O)c2cccs2)cc1`, 8.1%. As for `COc1ccccc1NS(=O)(=O)c1cccc(NC(=O)Cc2cccs2)c1`, the figure is 4.01%. Regarding `O=C(N/N=C/c1ccoc1)c1cccc([N+](=O)[O-])c1`, the “hERG current change (%, negative = inhibition) at 10uM” value is recorded as 9.75%. As for `O=C(CSc1ncnc2sccc12)N1CCN(C(=O)c2cccs2)CC1`, the figure is -47.1%; as for `Cc1cc(N2CCC(C)CC2)nc2cccc(O)c12`, -28.7%; as for `CCCCC(=O)NC(=S)Nc1cccc(NC(=O)c2ccccc2)c1`, 23.4%. With `CC(C)c1ccccc1NC(=S)NCc1nc2ccccc2[nH]1`, the “hERG current change (%, negative = inhibition) at 10uM” value is reported as 12.1%. Under `COc1ccc(CCNC(=O)COC(=O)C2CCCCC2)cc1` stands 7.11%. As for `COc1ccc(C)cc1NC(=O)C1CC(=O)OC12CCCCC2` (stereo not drawn), the figure is -3.97%; as for `O=C(Nc1nccs1)c1ccc(-c2ccc([N+](=O)[O-])cc2)o1`, 13.4%.
